# Assay results as given in the antibiotic and cytotoxicity screens of Wong et al. (2023).
# The list shows a part of the results.
# Tested on: HSkMC (human skeletal muscle cells)
# Assay: cytotoxicity call (relative viability < 0.9)
# Conditions: 10 µM
row,Structure (SMILES),cytotoxicity call
1,C[C@@H]1CN([C@@H](C)CO)C(=O)c2cccc(NS(=O)(=O)c3cn(C)cn3)c2O[C@@H]1CN(C)C(=O)Nc1ccc(F)cc1,inactive
2,C[C@H]1CN([C@@H](C)CO)C(=O)c2cc(NC(=O)CCCN(C)C)ccc2O[C@H]1CN(C)S(=O)(=O)c1ccc(F)cc1,inactive
3,Cc1noc(C)c1S(=O)(=O)N(C)C[C@@H]1OCc2cn(nn2)CCCC(=O)N([C@@H](C)CO)C[C@H]1C,inactive
4,COc1ccc(S(=O)(=O)Nc2ccc3c(c2)CC(=O)N([C@@H](C)CO)C[C@H](C)[C@H](CN(C)C(=O)Nc2c(C)noc2C)O3)cc1,inactive
5,CCc1nc2ccc(C(=O)NCc3ccc4c(c3)OCO4)cn2c1N(CC)Cc1cccc(Br)c1,inactive
6,C[C@@H]1CCCCO[C@H](CN(C)Cc2ccc(Cl)c(Cl)c2)[C@H](C)CN([C@@H](C)CO)C(=O)c2cc(NS(=O)(=O)c3ccc(Cl)cc3)ccc2O1,inactive
7,CNC(=O)C[C@H]1Nc2ccccc2NC1=O,inactive
8,COc1ccccc1C#Cc1cnc2c(c1)C(=O)N([C@H](C)CO)C[C@@H](C)[C@@H](CN(C)C(=O)CC1CC1)O2,inactive
9,C[C@@H]1CN([C@@H](C)CO)C(=O)c2cc(C#CC3(O)CCCC3)cnc2O[C@@H]1CN(C)C(=O)Cc1ccncc1,inactive
10,COc1ccc([Si](C)(C)[C@H]2[C@H](CCOC(=O)NCCCCCC(=O)NO)O[C@]3(C(=O)N(Cc4cccc(I)c4)c4ccccc43)[C@@H]2C)cc1,inactive
11,CN1C(=O)c2cc(NC(=O)c3cscn3)ccc2OC[C@H]2O[C@@H](CC(=O)N3CCOCC3)CC[C@@H]21,inactive
12,C[C@H]1CN([C@@H](C)CO)C(=O)Cc2cc(NC(=O)Nc3ccccc3)ccc2O[C@H]1CN(C)C(=O)Nc1ccc(C(F)(F)F)cc1,inactive
13,C[C@H]1CN([C@@H](C)CO)S(=O)(=O)c2ccc(-c3ccncc3)cc2O[C@H]1CN(C)S(=O)(=O)c1ccccc1F,inactive
14,Cc1ccc(S(=O)(=O)Nc2ccc3c(c2)CC(=O)N([C@@H](C)CO)C[C@@H](C)[C@@H](CN(C)S(C)(=O)=O)O3)cc1,inactive
15,Cc1noc(C)c1S(=O)(=O)Nc1ccc2c(c1)CC(=O)N([C@@H](C)CO)C[C@@H](C)[C@H](CN(C)C(=O)NC(C)C)O2,inactive
16,CCCN(C)C[C@H]1OCCCC[C@H](C)Oc2ccc(NC(=O)CCC(F)(F)F)cc2C(=O)N([C@H](C)CO)C[C@H]1C,inactive
17,C[C@@H]1CN([C@@H](C)CO)C(=O)c2cc(NS(C)(=O)=O)ccc2O[C@H]1CN(C)C(=O)NC1CCCCC1,inactive
18,O=C(C[C@@H]1CC=CCC[C@@H](Cc2ccc(F)cc2)C(=O)OCCNC1=O)N[C@@H](CO)Cc1ccccc1,inactive
19,COc1ccc([Si](C)(C)[C@@H]2[C@@H](CCn3cc(CCOC(=O)NCCCCCC(=O)NO)nn3)O[C@]3(C(=O)N(Cc4ccc(I)cc4)c4ccccc43)[C@H]2C)cc1,inactive
20,O=C1N[C@H](Cc2ccccc2)COC(=O)[C@@H](Cc2ccc(F)cc2)CCC=CC[C@@H]1CC(=O)N(CCO)Cc1ccccc1,inactive
21,C[C@@H]1CN([C@H](C)CO)C(=O)c2cc(NC(=O)Nc3cccc4ccccc34)ccc2O[C@@H]1CN(C)S(=O)(=O)c1ccc(Cl)cc1,inactive
22,C[C@@H]1CCCCO[C@H](CN(C)S(=O)(=O)c2cccs2)[C@@H](C)CN([C@H](C)CO)C(=O)c2cc(NC(=O)C3CCCCC3)ccc2O1,inactive
23,C[C@H]1CN([C@@H](C)CO)C(=O)c2cc(NS(C)(=O)=O)ccc2O[C@H]1CN(C)Cc1ccc(C(F)(F)F)cc1,inactive
24,C[C@@H]1CN([C@@H](C)CO)C(=O)c2cc(NC(=O)CCN3CCOCC3)ccc2O[C@H]1CN(C)S(=O)(=O)c1ccccc1,inactive
25,C[C@@H]1CCCCO[C@@H](CN(C)C(=O)Nc2ccc3c(c2)OCO3)[C@H](C)CN([C@@H](C)CO)C(=O)c2cc(NC(=O)NC3CCCCC3)ccc2O1,inactive
26,C[C@@H]1CCCCO[C@@H](CN(C)Cc2ccc(C(=O)O)cc2)[C@@H](C)CN([C@H](C)CO)C(=O)c2cc(NC(=O)Nc3ccc4c(c3)OCO4)ccc2O1,inactive
27,CC[C@@]12O[C@H]3[C@@H](O)[C@H]4C[C@@H]3[C@@H]1[C@@H]4C(=O)N2C,inactive
28,COc1cc(OC)c2ccc(=O)oc2c1,inactive
29,C[C@H]1CN([C@@H](C)CO)C(=O)c2cccc(NC(=O)Nc3ccc(F)cc3)c2O[C@H]1CN(C)Cc1ccc(Cl)c(Cl)c1,inactive
